Source: PubChem BioAssay AID1347073 (National Center for Advancing Translational Sciences (NCATS), 2019)
The whole screen tested about 45,000 compounds, of which about 200 (0.44%) were called active. Not shown: some 7% with an inconclusive outcome. The call rests on the fitted dose curve; in most records, active means well fitted activation curve with a large enough effect; inconclusive means small, poorly fitted or top-dose-only effect; inactive means no such curve, though single readings can be large or run the other way. Some of the results follow.

Assay: qHTS of TDP-43 Inhibitors: NCGC Sytravon Library Screen; further: 0% is about no effect; nearly all actives have a fitted effect of over 55% in size
Conditions: yeast TDP-43 toxicity rescue, BacTiter-Glo growth, 24 h; series mostly up to 46.1 µM; growth rescue (activation): at the top concentration
In short: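 TDP-43-expressing yeast, pregrown in raffinose, seeded at OD600 0.02 in galactose medium with compound for 24 hr at 30 deg C. Growth read by BacTiter-Glo luminescence, so rescue of toxicity appears as activation.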

| Structure (SMILES) | growth rescue (activation) |
| --- | --- |
| CC1=NNC(=O)C1Oc1ccccc1 (stereo unspecified) | inactive: 11.3% |
| CCCn1cc(CN2CCC(N3CCC(C(=O)N4CCOCC4)CC3)CC2)c(C)n1 | inactive: 18.4% |
| COc1ccc(NC(=O)N2CCCC2C(=O)Nc2ccccc2)cc1 (stereo unspecified) | inactive: 27.3% |
| Nc1cc(N)nc(SCc2nnnn2-c2ccc(Cl)cc2)n1 | inactive: -12% |
| CCCCCCOC(=O)Cc1c(C)nc(-c2ccccc2)[nH]c1=O | inactive: 36.3% |
| Cc1cc(N2C(=O)C(O)=C(C(=O)c3ccco3)C2c2cccc(Oc3ccccc3)c2)no1 (stereo unspecified) | inactive: -15.9% |
| O=C(C1=C(O)C(=O)N(CCN2CCOCC2)C1c1cccc([N+](=O)[O-])c1)c1cccs1 (stereo unspecified) | inactive: 8.63% |
| Cc1ccc2[nH]cc(S(=O)(=O)c3ccc(F)cc3)c(=O)c2c1 | inactive: -4.95% |
| Cc1cc(C(F)(F)F)nn1CC(=O)Nc1cccnc1 | inactive: 5.36% |
| O=C(COC(=O)[C@@H]1CCCN1S(=O)(=O)c1ccccc1F)Nc1ccc(OC(F)F)cc1 | inactive: -6.89% |
| O=C(NN1CCOCC1)c1sc2cccc(F)c2c1Cl | inactive: 12% |
| Brc1ccc(OCc2cn3ccccc3n2)cc1 | inactive: 17.4% |
| COc1ccc(C2CC(c3ccccc3)=NN2C(=O)COC(=O)c2cccc(O)c2)cc1 (stereo unspecified) | inactive: 8.07% |
| CCc1ccccc1NC(=O)CN(C)C(=O)COC(=O)c1ccccc1Cl | inactive: 30.7% |
| CC1(C(=O)NS(=O)(=O)c2cccc(OC(F)F)c2)CCN1C(=O)CCc1cccs1 (stereo unspecified) | inactive: 7.96% |
| CCN1CCN(C(=S)Nc2ccsc2C(=O)OC)CC1 | inactive: -7.92% |
| COC(=O)c1cc(C(=O)Nc2ccc(S(N)(=O)=O)cc2)cc([N+](=O)[O-])c1 | inactive: 15% |
| CSCCC(N=C(NS(=O)(=O)c1ccccc1)c1ccccc1)C(=O)O (stereo unspecified) | inactive: 31.4% |
| COc1ccc(F)cc1C(=O)C1CCCN(Cc2c(C)n(C)n(-c3ccccc3)c2=O)C1 (stereo unspecified) | inactive: 10.3% |
| Cc1cc(NC(=O)Nc2cccc(C)c2C)no1 | inactive: 3.81% |
| COc1ccc(C(=O)Nc2cc3c(cc2C(=O)O)OCCCO3)c(OC)c1 | inactive: 14.6% |
| CCOc1ccc(C(=O)OCC(=O)NCc2ccco2)cc1OCC | inactive: 12.9% |

| Structure (SMILES) | growth rescue (activation) |
| --- | --- |
| O=C(Nc1ccccc1O)c1nc(Cl)ccc1Cl | inactive: 9.34% |
| COc1ccc(/C=C/C(=O)OCC(=O)Nc2ccc(N3CCOCC3)cc2)cc1 | inactive: 10.5% |
| COc1ccc(/C=C(\NC(=O)c2ccc(OCC(C)C)cc2)C(=O)OCc2ccco2)cc1 | inactive: -3.04% |
| CN(C)c1ccc(C(=O)NNC(=O)C23CC4CC(CC(C4)C2)C3)cc1 | inactive: 21.9% |
| CC(=O)c1cc(-c2ccccc2)n(CC(=O)N2CCCC2)c1C | inactive: -7.66% |
| O=C(NC1CCCC1)C1CCN(C(=O)c2ccccc2Cl)CC1 | inactive: 21.5% |
| O=c1cnnc(N/N=C/c2c[nH]c3ccccc23)[nH]1 | inactive: -0.135% |
| CCOc1ccc(N(CC(=O)NC2CC2)S(=O)(=O)c2ccc(C)cc2)cc1 | inactive: 9.02% |
| Cc1ccc(NC(=O)Cc2nc(COC(=O)Cc3cccc(C(F)(F)F)c3)cs2)cc1 | inactive: 3.74% |
| COc1cc(OC)c(C(=O)OCC(=O)N2CCOCC2)cc1OC | inactive: 6.52% |
| Cc1sc2nc(CSc3ccccc3)nc(N3CCN(C)CC3)c2c1C | inactive: -28.2% |
| COC(=O)c1ccccc1NC(=O)c1ccc(F)cc1 | inactive: 7.36% |
| COc1cc(Cl)cc(C=O)c1OCC(=O)O | inactive: 8.3% |
| COc1ccc(-c2cc(NC=O)c3ncc(-c4ccc(C(C)=O)cc4)n3c2)cc1OC | inactive: 16.4% |
| COc1ccc(NC(=O)COC(=O)Cn2cnc3ccccc3c2=O)cc1OC | inactive: 9.33% |
| CCc1ccc(OCC(=O)NNC(=O)CSc2nnc(-c3ccc(C)cc3)n2C)cc1 | inactive: 3.52% |
| O=C(COC(=O)CNC(=O)c1ccccc1)Nc1ccc2c(c1)OCO2 | inactive: -0.417% |
| NC(=O)NC(=O)CSc1nc2sc(-c3ccccc3)cc2c(=O)n1-c1ccccc1 | inactive: 12.7% |
| O=C(NC1CCS(=O)(=O)C1)C1C2CC3CC(C2)CC1C3 (stereo unspecified) | inactive: -1.05% |
| CCN(CC)CCN(Cc1cc2cc(C)cc(C)c2[nH]c1=O)C(=S)NCc1ccco1 | inactive: -8.62% |
| Cc1nnc(SCC(=O)NNC(=O)COc2ccc(Cl)cc2)n1C | inactive: 9.6% |
| Cc1ccc(S(=O)(=O)CCC(=O)NCc2ccc(Cl)cc2)cc1 | inactive: 4.04% |

| Structure (SMILES) | growth rescue (activation) |
| --- | --- |
| CN(C)CCNc1ccc(Cl)cc1[N+](=O)[O-] | inactive: 13.4% |
| O=C(Nc1ccc2oc(-c3cccnc3)nc2c1)c1ccc(-c2cccc(Cl)c2)o1 | inactive: 15.1% |
| CCOc1ccccc1NC(=O)c1ccc2nc[nH]c2c1 | inactive: 7.54% |
| CC(C)(C)c1cc(NC(=O)C2(C)CCN2C(=O)C2(c3ccccc3)CC2)no1 (stereo unspecified) | inactive: 29.3% |
| O=C(Nc1nccs1)C1CC(=O)N(c2ccccc2)C1 (stereo unspecified) | inactive: 0.687% |
| CCN(CC(=O)Nc1ccc2c(c1)OCCO2)CC(=O)Nc1ccc(C)c([N+](=O)[O-])c1 | inactive: 10.4% |
| CC1(C(=O)NS(=O)(=O)c2ccccc2OC(F)(F)F)CCN1C(=O)c1ccccc1 (stereo unspecified) | inactive: 15.1% |
| CCOc1cc(C(=O)Nc2cccc(OCC(=O)N3CCOCC3)c2)cc(OCC)c1OCC | inactive: -16.1% |
| O=C(CN1C(=O)NC2(CCCC2)C1=O)Nc1cccc(C(F)(F)F)c1 | inactive: 9.29% |
| Cn1c(=O)c(=O)n(C)c2cc([N+](=O)[O-])c(N3CCOCC3)cc21 | inactive: -1.36% |
| CCc1nc2ccc(C(=O)NCCC(C)C)cn2c1N(CCN(C)C)CC1CC1 | inactive: -3.02% |
| CS(=O)(=O)N1CCC(C(=O)N2CCN(c3cccc(Cl)c3)CC2)CC1 | inactive: 4.57% |
| CCc1ccc(N2CC(O)=C(c3nc4ccccc4c(=O)[nH]3)C2=N)cc1 | inactive: -4.78% |
| CC(OC(=O)c1ccc(NC(=O)CC#N)cc1)C(=O)NC(c1ccccc1)c1ccccc1 (stereo unspecified) | inactive: 25.2% |
| COCCNC(=O)C1(C)CCCN(C(=O)c2cccc3ccccc23)C1 (stereo unspecified) | inactive: -8.19% |
| CN(C)CCNc1nc(-c2ccccc2F)c2sccc2n1 | inactive: -13.4% |
| CC(N)c1csc(Nc2ccc(C(=O)c3ccccc3)cc2)n1 (stereo unspecified) | inactive: 12.2% |
| COc1ccc(NC(=O)CN2C(=O)NC(c3ccccc3)(c3ccccc3)C2=O)cc1OC | inactive: -1.88% |
| COc1ccc(NC(=O)CN2C(=O)NC(C)(c3ccc4c(c3)OCO4)C2=O)cc1S(N)(=O)=O (stereo unspecified) | inactive: 5.01% |
| Cc1ccc(/C=N/Nc2ccc(F)cc2)s1 | inactive: 18.1% |
| CCOC(=O)N1CCN(S(=O)(=O)c2cccc3cccnc23)CC1 | inactive: 41.4% |
| CCOc1ccc(CNC(=O)c2ccc3c(c2)N(CC)CCS3)cc1 | inactive: 2.16% |

| Structure (SMILES) | growth rescue (activation) |
| --- | --- |
| CS(=O)(=O)c1ccc(C(=O)NCC2(N3CCOCC3)CCCCC2)cc1 | inactive: 8.4% |
| O=C(NCc1cccc(Cl)c1)N1CCN(S(=O)(=O)c2ccccc2F)CC1 | inactive: 29.5% |
| Cc1cccc(-n2ncc3c2CCCC3NC(=O)Cn2cccn2)c1C (stereo unspecified) | inactive: -0.0808% |
| COc1ccc(C(=O)NNC(=O)c2ccc(F)c(S(=O)(=O)N3CCOCC3)c2)cc1 | inactive: -0.947% |
| CCCNC(=O)Cn1c(=O)cnc2ccccc21 | inactive: -15.6% |
| Cc1cc(Cl)ccc1NC(=O)C(=O)N/N=C/c1ccc2c(c1)OCO2 | inactive: 3.41% |
| Cc1nn(-c2ccccc2)c(N)c1C(c1ccccc1)c1c(C)nn(-c2ccccc2)c1N | inactive: 14.9% |
| O=C(CSc1nnc(NC(=O)c2ccccc2F)s1)NC1CC1 | inactive: 11.7% |
| Cc1cc(C)n(C(=O)/C(C#N)=C/N(C)C)n1 | inactive: 0.488% |
| CC(O)CNc1nc2ccccc2n1CC(=O)N1CCN(Cc2ccccc2)CC1 (stereo unspecified) | inactive: 4.14% |
| Cc1cccc(NC(=O)CCC(=O)Nc2nnc(C(F)(F)F)s2)c1 | inactive: -1.56% |
| O=C(Cc1ccccc1)Nc1ccc(NC(=O)c2ccco2)cc1 | inactive: -15.4% |
| COc1ccc(-c2cc(C(F)(F)F)nc(SCC(=O)Nc3cc(C)on3)n2)cc1OC | inactive: -3.1% |
| O=C(CNS(=O)(=O)c1ccc(F)cc1)N1CCOCC1 | inactive: 13.2% |
| O=C(COc1ccccc1/C=C1\SC(=S)NC1=O)Nc1ccc(F)cc1 | inactive: 2.71% |
| CC(=O)Nc1ccc(S(=O)(=O)NC2=NCN(C)CN2)cc1 | inactive: 2.14% |
| C=CCc1cccc(/C=N/NC(=O)C(C)Nc2cccc(C)c2)c1O (stereo unspecified) | inactive: -14.7% |
| CCOc1ccc2nc(S(=O)(=O)NC(=O)C3(C)CCN3C(=O)CCc3cccs3)sc2c1 (stereo unspecified) | inactive: 13.6% |
| CCCc1nc2ccccc2c(=O)n1-c1c(C)n(C)n(-c2ccccc2)c1=O | inactive: 16.3% |
| Cc1ccc(S(=O)(=O)CC(=O)N2CCN(c3ccc(F)cc3)CC2)cc1 | inactive: 23.1% |
| COCCOC1CCN(C(=O)c2cc(COc3ccc(F)cc3F)on2)CC1 | inactive: 18.9% |
| O=C(O)c1ccc(Cl)c(S(=O)(=O)NCc2cccnc2)c1 | inactive: 2.07% |

| Structure (SMILES) | growth rescue (activation) |
| --- | --- |
| O=C1N(Cc2cccc(Cl)c2)C[C@@H]2C[C@@H](c3ccco3)N3CCC[C@@]123 | inactive: 0.263% |
| COc1ccc(C(=O)/C=C/c2ccc(OC)c(Cn3nnc4ccccc43)c2)cc1 | inactive: -5.5% |
| CCN(CC(=O)NCc1ccncc1)S(=O)(=O)c1ccccc1 | inactive: 3.07% |
| CCOP(=O)(OCC)C(C#N)=C1SCN(c2ccccc2)CS1 | inactive: 25.8% |
| Nc1ccccc1C(=O)N/N=C1/C2CN3CCN(C2)CC1(Cc1ccccc1)C3 | inactive: 0.336% |
| CC(C)c1ccc(C(C(=O)NC2CCCCC2)N(C(=O)c2csnn2)C2CC2)cc1 (stereo unspecified) | inactive: 10.5% |
| Cn1c(N)c(C(=O)COC(=O)CCCc2c[nH]c3ccccc23)c(=O)n(C)c1=O | inactive: 0.0655% |
| CCOc1ccc(NC(=S)N2CCC(N(C)CC3CCCO3)CC2)cc1 (stereo unspecified) | inactive: 4.34% |
| CCn1c(SCC(=O)NC2CC2)nnc1-c1ccc(OC)cc1 | inactive: -5.46% |
| O=C(NCCc1ccccc1)C1CCCN(C(=O)Nc2ccc(F)cc2)C1 (stereo unspecified) | inactive: 3.38% |
| CC(NC(=O)COC(=O)CNC(=O)c1ccccc1Cl)C1CC2CCC1C2 (stereo unspecified) | inactive: 5.78% |
| O=C(COC(=O)c1sc2ccccc2c1Cl)NC1CCCCC1 | inactive: 14.1% |
| COc1ccc(NC(=O)c2cc3ccccc3o2)cc1S(=O)(=O)N1CCCCC1 | inactive: -13.2% |
| Cc1cccc(-c2c3c(=O)n(C)c(=O)n(C)c3c3nnc4ccccc4n23)c1 | inactive: 13.1% |
| CC1CCCC(NC(=O)COC(=O)CCC(=O)c2cccs2)C1C (stereo unspecified) | inactive: 15.1% |
| CC(=O)NCCC(=O)Nc1cc(S(=O)(=O)Nc2ccc(Cl)cc2)ccc1N1CCCC1 | inactive: 4.59% |
| O=[N+]([O-])c1ccccc1N(CC1CO1)S(=O)(=O)c1ccccc1 (stereo unspecified) | inactive: 3.81% |
| Cc1ccccc1OCc1nc2c3cnn(-c4cccc(F)c4)c3ncn2n1 | inactive: 4.26% |
